# Some of the results follow.
# B1: Neuropilin-1 (Homo sapiens), O14786 (protein)
# chain: FKCMEALGMESGEIHSDQITASSQYSTNWSAERSRLNYPENGWTPGEDSYREWIQVDLGLLRFVTAVGTQGAISKETKKKYYVKTYKIDVSSNGEDWITIKEGNKPVLFQGNTNPTDVVVAVFPKPLITRFVRIKPATWETGISMRFEVYGCKITDYPCSGMLGMVSGLISDSQITSSNQGDRNWMPENIRLVTSRSGWALPPAPHSYINEWLQIDLGEEKIVRGIIIQGGKHRENKVFMRKFKIGYSNNGSDWKMIMDDSKRKAKSFEGNNNYDTPELRTFPALSTRFIRIYPERATHGGLGLRMELLGCEVE
# Columns and labels:
# Assay in all cases: glycan array binding signal (z-score within array); higher = stronger binding
# Settings in all cases: glycan notation: IUPAC condensed, linker removed
# [1] = biological target: Neu5Ac(a2-3)Gal(b1-4)GlcNAc(b1-3)GalNAc
# Procedure, shortened: (§1)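 Glycan array data came from 3228 arrays in the Consortium for Functional Glycomics database, and only arrays with an available protein sequence were kept. Glycan names were put into IUPAC-condensed notation, and columns mapping to the same glycan were averaged. The binding signal is a within-array Z-score, averaged across arrays of one protein sequence run at different concentrations or buffers and across linkers. A negative Z-score can be read as non-binding.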
# [2] = biological target: Neu5Ac(a2-3)Gal(b1-4)GlcNAc(b1-6)[Gal(b1-3)]GalNAc
# Procedure, shortened: as §1
# [3] = biological target: Neu5Ac(a2-3)Gal(b1-4)GlcNAc(b1-6)[Neu5Ac(a2-3)Gal(b1-3)]GalNAc
# Procedure, shortened: as §1
# [4] = biological target: Neu5Ac(a2-3)Gal(b1-4)GlcNAc6S
# Procedure, shortened: as §1
# [5] = biological target: Neu5Ac(a2-3)Gal(b1-4)[Fuc(a1-3)]GlcNAc
# Procedure, shortened: as §1
# [6] = biological target: Neu5Ac(a2-3)Gal(b1-4)[Fuc(a1-3)]GlcNAc(b1-3)Gal
# Procedure, shortened: as §1
# [7] = biological target: Neu5Ac(a2-3)Gal(b1-4)[Fuc(a1-3)]GlcNAc(b1-3)Gal(b1-4)GlcNAc
# Procedure, shortened: as §1
# [8] = biological target: Neu5Ac(a2-3)Gal(b1-4)[Fuc(a1-3)]GlcNAc(b1-3)Gal(b1-4)[Fuc(a1-3)]GlcNAc(b1-3)Gal(b1-4)[Fuc(a1-3)]GlcNAc
# Procedure, shortened: as §1
# [9] = biological target: Neu5Ac(a2-3)Gal(b1-4)[Fuc(a1-3)]GlcNAc(b1-3)GalNAc
# Procedure, shortened: as §1
# [10] = biological target: Neu5Ac(a2-3)Gal(b1-4)[Fuc(a1-3)]GlcNAc(b1-6)[Gal(b1-3)]GalNAc
# Procedure, shortened: as §1
# [11] = biological target: Neu5Ac(a2-3)Gal(b1-4)[Fuc(a1-3)]GlcNAc(b1-6)[Neu5Ac(a2-3)Gal(b1-3)]GalNAc
# Procedure, shortened: as §1
# [12] = biological target: Neu5Ac(a2-3)Gal(b1-4)[Fuc(a1-3)]GlcNAc6S
# Procedure, shortened: as §1
# [13] = biological target: Neu5Ac(a2-3)Gal6S(b1-4)GlcNAc
# Procedure, shortened: as §1
# [14] = biological target: Neu5Ac(a2-3)Gal6S(b1-4)[Fuc(a1-3)]GlcNAc
# Procedure, shortened: as §1
# Neu5Ac(a2-3)GalNAc = biological target: Neu5Ac(a2-3)GalNAc
# Procedure, shortened: as §1
# [15] = biological target: Neu5Ac(a2-3)GalNAc(b1-4)GlcNAc
# Procedure, shortened: as §1
# [16] = biological target: Neu5Ac(a2-3)[GalNAc(b1-4)]Gal(b1-4)Glc
# Procedure, shortened: as §1
# [17] = biological target: Neu5Ac(a2-3)[GalNAc(b1-4)]Gal(b1-4)GlcNAc
# Procedure, shortened: as §1
# [18] = biological target: Neu5Ac(a2-3)[Neu5Ac(a2-6)]GalNAc
# Procedure, shortened: as §1
# Neu5Ac(a2-6)Gal = biological target: Neu5Ac(a2-6)Gal
# Procedure, shortened: as §1
# Neu5Ac(a2-6)Gal(b1-4)Glc = biological target: Neu5Ac(a2-6)Gal(b1-4)Glc
# Procedure, shortened: as §1
# [19] = biological target: Neu5Ac(a2-6)Gal(b1-4)GlcNAc
# Procedure, shortened: as §1
# [20] = biological target: Neu5Ac(a2-6)Gal(b1-4)GlcNAc(b1-2)Man(a1-3)Man(b1-4)GlcNAc(b1-4)GlcNAc
# Procedure, shortened: as §1
# [21] = biological target: Neu5Ac(a2-6)Gal(b1-4)GlcNAc(b1-2)Man(a1-3)[Gal(b1-4)GlcNAc(b1-2)Man(a1-6)]Man(b1-4)GlcNAc(b1-4)GlcNAc
# Procedure, shortened: as §1
# [22] = biological target: Neu5Ac(a2-6)Gal(b1-4)GlcNAc(b1-2)Man(a1-3)[GlcNAc(b1-2)Man(a1-6)]Man(b1-4)GlcNAc(b1-4)GlcNAc
# Procedure, shortened: as §1
# [23] = biological target: Neu5Ac(a2-6)Gal(b1-4)GlcNAc(b1-2)Man(a1-3)[GlcNAc(b1-2)Man(b1-4)GlcNAc(b1-2)Man(a1-6)]Man(b1-4)GlcNAc(b1-4)GlcNAc
# Procedure, shortened: as §1
# [24] = biological target: Neu5Ac(a2-6)Gal(b1-4)GlcNAc(b1-2)Man(a1-3)[Man(a1-6)]Man(b1-4)GlcNAc(b1-4)GlcNAc
# Procedure, shortened: as §1
# [25] = biological target: Neu5Ac(a2-6)Gal(b1-4)GlcNAc(b1-2)Man(a1-3)[Neu5Ac(a2-6)Gal(b1-4)GlcNAc(b1-2)Man(a1-6)]Man(b1-4)GlcNAc(b1-4)GlcNAc
# Procedure, shortened: as §1
# [26] = biological target: Neu5Ac(a2-6)Gal(b1-4)GlcNAc(b1-2)Man(a1-6)Man(b1-4)GlcNAc(b1-4)GlcNAc
# Procedure, shortened: as §1
# [27] = biological target: Neu5Ac(a2-6)Gal(b1-4)GlcNAc(b1-2)Man(a1-6)[Gal(b1-4)GlcNAc(b1-2)Man(a1-3)]Man(b1-4)GlcNAc(b1-4)GlcNAc
# Procedure, shortened: as §1
# [28] = biological target: Neu5Ac(a2-6)Gal(b1-4)GlcNAc(b1-2)Man(a1-6)[GlcNAc(b1-2)Man(a1-3)]Man(b1-4)GlcNAc(b1-4)GlcNAc
# Procedure, shortened: as §1
# [29] = biological target: Neu5Ac(a2-6)Gal(b1-4)GlcNAc(b1-2)Man(a1-6)[Man(a1-3)]Man(b1-4)GlcNAc(b1-4)GlcNAc
# Procedure, shortened: as §1
# [30] = biological target: Neu5Ac(a2-6)Gal(b1-4)GlcNAc(b1-3)Gal(b1-3)GlcNAc
# Procedure, shortened: as §1
# [31] = biological target: Neu5Ac(a2-6)Gal(b1-4)GlcNAc(b1-3)Gal(b1-4)GlcNAc
# Procedure, shortened: as §1
# [32] = biological target: Neu5Ac(a2-6)Gal(b1-4)GlcNAc(b1-3)Gal(b1-4)GlcNAc(b1-3)Gal(b1-4)GlcNAc
# Procedure, shortened: as §1
# [33] = biological target: Neu5Ac(a2-6)Gal(b1-4)GlcNAc(b1-3)Gal(b1-4)[Fuc(a1-3)]GlcNAc(b1-3)Gal(b1-4)[Fuc(a1-3)]GlcNAc
# Procedure, shortened: as §1
# [34] = biological target: Neu5Ac(a2-6)Gal(b1-4)GlcNAc(b1-3)GalNAc
# Procedure, shortened: as §1
# [35] = biological target: Neu5Ac(a2-6)Gal(b1-4)GlcNAc6S
# Procedure, shortened: as §1
binder,measurement,setting,value
B1,glycan array binding signal (z-score),[1],-0.287
same,glycan array binding signal (z-score),[2],-0.245
same,glycan array binding signal (z-score),[3],-0.261
same,glycan array binding signal (z-score),[4],-0.064
same,glycan array binding signal (z-score),[5],-0.255
same,glycan array binding signal (z-score),[6],-0.267
same,glycan array binding signal (z-score),[7],1.46
same,glycan array binding signal (z-score),[8],0.049
same,glycan array binding signal (z-score),[9],2.8
same,glycan array binding signal (z-score),[10],0.942
same,glycan array binding signal (z-score),[11],1.69
same,glycan array binding signal (z-score),[12],-0.263
same,glycan array binding signal (z-score),[13],0.037
same,glycan array binding signal (z-score),[14],-0.303
same,glycan array binding signal (z-score),Neu5Ac(a2-3)GalNAc,0.154
same,glycan array binding signal (z-score),[15],-0.169
same,glycan array binding signal (z-score),[16],-0.201
same,glycan array binding signal (z-score),[17],-0.198
same,glycan array binding signal (z-score),[18],-0.224
same,glycan array binding signal (z-score),Neu5Ac(a2-6)Gal,-0.197
same,glycan array binding signal (z-score),Neu5Ac(a2-6)Gal(b1-4)Glc,-0.244
same,glycan array binding signal (z-score),[19],-0.254
same,glycan array binding signal (z-score),[20],-0.314
same,glycan array binding signal (z-score),[21],-0.208
same,glycan array binding signal (z-score),[22],-0.282
same,glycan array binding signal (z-score),[23],-0.323
same,glycan array binding signal (z-score),[24],-0.151
same,glycan array binding signal (z-score),[25],-0.224
same,glycan array binding signal (z-score),[26],-0.223
same,glycan array binding signal (z-score),[27],-0.208
same,glycan array binding signal (z-score),[28],-0.278
same,glycan array binding signal (z-score),[29],-0.341
same,glycan array binding signal (z-score),[30],-0.242
same,glycan array binding signal (z-score),[31],-0.295
same,glycan array binding signal (z-score),[32],-0.079
same,glycan array binding signal (z-score),[33],-0.266
same,glycan array binding signal (z-score),[34],0.061
same,glycan array binding signal (z-score),[35],-0.28

# From the supplement of paper PMC8728848
